In the supplement of paper PMC8728848:
This is one part of the list.

Assays:
Assay in all cases: glycan array binding signal (z-score within array); higher = stronger binding
Settings in all cases: glycan notation: IUPAC condensed, linker removed
[1] = target: Gal(b1-3)GlcNAc(b1-3)GalNAc
Summary of the method: (§1)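 Glycan array data came from 3228 arrays in the Consortium for Functional Glycomics database, and only arrays with an available protein sequence were kept. Glycan names were put into IUPAC-condensed notation, and columns mapping to the same glycan were averaged. The binding signal is a within-array Z-score, averaged across arrays of one protein sequence run at different concentrations or buffers and across linkers. A negative Z-score can be read as non-binding.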

[2] = target: Gal(b1-3)GlcNAc(b1-6)Gal(b1-4)GlcNAc
Summary of the method: as §1

[3] = target: Gal(b1-3)GlcNAc(b1-6)GalNAc
Summary of the method: as §1

[4] = target: Gal(b1-3)GlcNAc6S
Summary of the method: as §1

[5] = target: Gal(b1-3)[Fuc(a1-4)]GlcNAc
Summary of the method: as §1

[6] = target: Gal(b1-3)[Fuc(a1-4)]GlcNAc(b1-2)Man(a1-3)[Gal(b1-3)[Fuc(a1-4)]GlcNAc(b1-2)Man(a1-6)]Man(b1-4)GlcNAc(b1-4)[Fuc(a1-6)]GlcNAc
Summary of the method: as §1

[7] = target: Gal(b1-3)[Fuc(a1-4)]GlcNAc(b1-3)Gal(b1-3)[Fuc(a1-4)]GlcNAc
Summary of the method: as §1

[8] = target: Gal(b1-3)[Fuc(a1-4)]GlcNAc(b1-3)Gal(b1-4)GlcNAc
Summary of the method: as §1

[9] = target: Gal(b1-3)[Fuc(a1-4)]GlcNAc(b1-3)Gal(b1-4)[Fuc(a1-3)]GlcNAc
Summary of the method: as §1

[10] = target: Gal(b1-3)[Fuc(a1-4)]GlcNAc(b1-6)GalNAc
Summary of the method: as §1

[11] = target: Gal(b1-3)[GlcNAc(b1-6)]GalNAc
Summary of the method: as §1

[12] = target: Gal(b1-3)[Neu5Ac(a2-6)]GalNAc
Summary of the method: as §1

[13] = target: Gal(b1-3)[Neu5Ac(a2-6)]GlcNAc(b1-4)Gal(b1-4)Glc
Summary of the method: as §1

[14] = target: Gal(b1-3)[Neu5Ac(a2-6)]GlcNAc(b1-6)Gal(b1-4)Glc
Summary of the method: as §1

[15] = target: Gal(b1-3)[Neu5Ac(b2-6)]GalNAc
Summary of the method: as §1

[16] = target: Gal(b1-4)Gal
Summary of the method: as §1

[17] = target: Gal(b1-4)GalNAc(a1-3)[Fuc(a1-2)]Gal(b1-4)GlcNAc
Summary of the method: as §1

[18] = target: Gal(b1-4)GalNAc(b1-3)[Fuc(a1-2)]Gal(b1-4)GlcNAc
Summary of the method: as §1

[19] = target: Gal(b1-4)Glc
Summary of the method: as §1

[20] = target: Gal(b1-4)Glc6S
Summary of the method: as §1

[21] = target: Gal(b1-4)GlcNAc
Summary of the method: as §1

[22] = target: Gal(b1-4)GlcNAc(a1-6)Gal(b1-4)GlcNAc
Summary of the method: as §1

[23] = target: Gal(b1-4)GlcNAc(b1-2)Man
Summary of the method: as §1

[24] = target: Gal(b1-4)GlcNAc(b1-2)Man(a1-3)Man(b1-4)GlcNAc(b1-4)GlcNAc
Summary of the method: as §1

[25] = target: Gal(b1-4)GlcNAc(b1-2)Man(a1-3)[Gal(b1-4)GlcNAc(b1-2)Man(a1-6)]Man(b1-4)GlcNAc(b1-4)GlcNAc
Summary of the method: as §1

[26] = target: Gal(b1-4)GlcNAc(b1-2)Man(a1-3)[Gal(b1-4)GlcNAc(b1-2)Man(a1-6)]Man(b1-4)GlcNAc(b1-4)[Fuc(a1-6)]GlcNAc
Summary of the method: as §1

[27] = target: Gal(b1-4)GlcNAc(b1-2)Man(a1-3)[Gal(b1-4)GlcNAc(b1-2)][GlcNAc(b1-4)]Man(b1-4)GlcNAc(b1-4)GlcNAc
Summary of the method: as §1

[28] = target: Gal(b1-4)GlcNAc(b1-2)Man(a1-3)[GlcNAc(b1-2)Man(a1-6)]Man(b1-4)GlcNAc(b1-4)GlcNAc
Summary of the method: as §1

[29] = target: Gal(b1-4)GlcNAc(b1-2)Man(a1-3)[Man(a1-6)]Man(b1-4)GlcNAc(b1-4)GlcNAc
Summary of the method: as §1

[30] = target: Gal(b1-4)GlcNAc(b1-2)Man(a1-6)Man(b1-4)GlcNAc(b1-4)GlcNAc
Summary of the method: as §1

B1: StcE (Escherichia coli), O82882.2 (protein)
chain: ADNNSAIYFNTSQPINDLQGSLAAEVKFAQSQILPAHPKEGDSQPHLTSLRKSLLLVRPVKADDKTPVQVEARDDNNKILGTLTLYPPSSLPDTIYHLDGVPEGGIDFTPHNGTKKIINTVAEVNKLSDASGSSIHSHLTNNALVEIHTANGRWVRDIYLPQGPDLEGKMVRFVSSAGYSSTVFYGDRKVTLSVGNTLLFKYVNGQWFRSGELENNRITYAQHIWSAELPAHWIVPGLNLVIKQGNLSGRLNDIKIGAPGELLLHTIDIGMLTTPRDRFDFAKDKEAHREYFQTIPVSRMIVNNYAPLHLKEVMLPTGELLTDMDPGNGGWHSGTMRQRIGKELVSHGIDNANYGLNSTAGLGENSHPYVVAQLAAHNSRGNYANGIQVHGGSGGGGIVTLDSTLGNEFSHEVGHNYGLGHYVDGFKGSVHRSAENNNSTWGWDGDKKRFIPNFYPSQTNEKSCLNNQCQEPFDGHKFGFDAMAGGSPFSAANRFTMYTPNSSAIIQRFFENKAVFDSRSSTGFSKWNADTQEMEPYEHTIDRAEQITASVNELSESKMAELMAEYAVVKVHMWNGNWTRNIYIPTASADNRGSILTINHEAGYNSYLFINGDEKVVSQGYKKSFVSDGQFWKERDVVDTREARKPEQFGVPVTTLVGYYDPEGTLSSYIYPAMYGAYGFTYSDDSQNLSDNDCQLQVDTKEGQLRFRLANHRANNTVMNKFHINVPTESQPTQATLVCNNKILDTKSLTPAPEGLTYTVNGQALPAKENEGCIVSVNSGKRYCLPVGQRSGYSLPDWIVGQEVYVDSGAKAKVLLSDWDNLSYNRIGEFVGNVNPADMKKVKAWNGQYLDFSKPRSMRVVYK
Question: With B1 as the binder, how does the “glycan array binding signal (z-score)” value [1] read?
Answer: 0.314

Question: What about the “glycan array binding signal (z-score)” value [2] of the same binder?
Answer: -0.141

Question: And the “glycan array binding signal (z-score)” value [3]?
Answer: -0.165

Question: What about the “glycan array binding signal (z-score)” value [4] of the same binder?
Answer: -0.103

Question: What about the “glycan array binding signal (z-score)” value [5] of the same binder?
Answer: 1.36

Question: And the “glycan array binding signal (z-score)” value [6]?
Answer: 4.66

Question: And the “glycan array binding signal (z-score)” value [7]?
Answer: 0.458

Question: What about the “glycan array binding signal (z-score)” value [8] of the same binder?
Answer: -0.156

Question: What about the “glycan array binding signal (z-score)” value [9] of the same binder?
Answer: -0.129

Question: And the “glycan array binding signal (z-score)” value [10]?
Answer: -0.007

Question: What about the “glycan array binding signal (z-score)” value [11] of the same binder?
Answer: -0.217

Question: What about the “glycan array binding signal (z-score)” value [12] of the same binder?
Answer: -0.226

Question: What about the “glycan array binding signal (z-score)” value [13] of the same binder?
Answer: 0.194

Question: What about the “glycan array binding signal (z-score)” value [14] of the same binder?
Answer: -0.176

Question: What about the “glycan array binding signal (z-score)” value [15] of the same binder?
Answer: -0.443

Question: And the “glycan array binding signal (z-score)” value [16]?
Answer: -0.063

Question: What about the “glycan array binding signal (z-score)” value [17] of the same binder?
Answer: 0.123

Question: And the “glycan array binding signal (z-score)” value [18]?
Answer: -0.151

Question: What about the “glycan array binding signal (z-score)” value [19] of the same binder?
Answer: -0.031

Question: And the “glycan array binding signal (z-score)” value [20]?
Answer: -0.148

Question: And the “glycan array binding signal (z-score)” value [21]?
Answer: -0.057

Question: And the “glycan array binding signal (z-score)” value [22]?
Answer: -0.153

Question: And the “glycan array binding signal (z-score)” value [23]?
Answer: -0.167

Question: And the “glycan array binding signal (z-score)” value [24]?
Answer: -0.115

Question: What about the “glycan array binding signal (z-score)” value [25] of the same binder?
Answer: -0.173

Question: And the “glycan array binding signal (z-score)” value [26]?
Answer: -0.164

Question: And the “glycan array binding signal (z-score)” value [27]?
Answer: -0.145

Question: And the “glycan array binding signal (z-score)” value [28]?
Answer: -0.172

Question: What about the “glycan array binding signal (z-score)” value [29] of the same binder?
Answer: 0.979

Question: And the “glycan array binding signal (z-score)” value [30]?
Answer: -0.131
